Measurements: the supplement of paper PMC11876631
± gives the standard deviation of the averaged measurements. Laboratory Escherichia coli strains with one amino-acid change in an essential protein, pooled on minimal glucose agar with carbenicillin or gentamicin at twice the control MIC (plus kanamycin and chloramphenicol for the plasmids), 48 h. Fold change of barcode share against drug-free plates; higher = less susceptible. Active = above 20 in both replicates (the paper's putatively resistant). '<' = one read or none on drug, '>' = one read or none on a drug-free plate. Shares are relative, so most strains fall below 1 when a few take over. Listed are strains with at least 15 reads on both drug-free plates, and hits; most hits rest on fewer reference reads. Replicate rank correlation about 0.5. Edits are read from barcodes.

B1: hemL V203Q (protein)
chain: MSKSENLYSAARELIPGGVNSPVRAFTGVGGTPLFIEKADGAYLYDVDGKAYIDYVGSWGPMVLGHNHPAIRNAVIEAAERGLSFGAPTEMEVKMAQLVTELVPTMDMVRMVNSGTEATMSAIRLARGFTGRDKIIKFEGCYHGHADCLLVKAGSGALTLGQPNSPGVPADFAKYTLTCTYNDLASVRAAFEQYPQEIACIIQEPVAGNMNCVPPLPEFLPGLRALCDEFGALLIIDEVMTGFRVALAGAQDYYGVVPDLTCLGKIIGGGMPVGAFGGRRDVMDALAPTGPVYQAGTLSGNPIAMAAGFACLNEVAQPGVHETLDELTTRLAEGLLEAAEEAGIPLVVNHVGGMFGIFFTDAESVTCYQDVMACDVERFKRFFHMMLDEGVYLAPSAFEAGFMSVAHSMEDINNTIDAARRVFAKL
B2: hemL V203D (protein)
chain: MSKSENLYSAARELIPGGVNSPVRAFTGVGGTPLFIEKADGAYLYDVDGKAYIDYVGSWGPMVLGHNHPAIRNAVIEAAERGLSFGAPTEMEVKMAQLVTELVPTMDMVRMVNSGTEATMSAIRLARGFTGRDKIIKFEGCYHGHADCLLVKAGSGALTLGQPNSPGVPADFAKYTLTCTYNDLASVRAAFEQYPQEIACIIDEPVAGNMNCVPPLPEFLPGLRALCDEFGALLIIDEVMTGFRVALAGAQDYYGVVPDLTCLGKIIGGGMPVGAFGGRRDVMDALAPTGPVYQAGTLSGNPIAMAAGFACLNEVAQPGVHETLDELTTRLAEGLLEAAEEAGIPLVVNHVGGMFGIFFTDAESVTCYQDVMACDVERFKRFFHMMLDEGVYLAPSAFEAGFMSVAHSMEDINNTIDAARRVFAKL
B3: hemL V203P (protein)
chain: MSKSENLYSAARELIPGGVNSPVRAFTGVGGTPLFIEKADGAYLYDVDGKAYIDYVGSWGPMVLGHNHPAIRNAVIEAAERGLSFGAPTEMEVKMAQLVTELVPTMDMVRMVNSGTEATMSAIRLARGFTGRDKIIKFEGCYHGHADCLLVKAGSGALTLGQPNSPGVPADFAKYTLTCTYNDLASVRAAFEQYPQEIACIIPEPVAGNMNCVPPLPEFLPGLRALCDEFGALLIIDEVMTGFRVALAGAQDYYGVVPDLTCLGKIIGGGMPVGAFGGRRDVMDALAPTGPVYQAGTLSGNPIAMAAGFACLNEVAQPGVHETLDELTTRLAEGLLEAAEEAGIPLVVNHVGGMFGIFFTDAESVTCYQDVMACDVERFKRFFHMMLDEGVYLAPSAFEAGFMSVAHSMEDINNTIDAARRVFAKL
B4: hisA L46A (protein)
chain: MIIPALDLIDGTVVRLHQGDYGKQRDYGNDPLPRLQDYAAQGAEVAHLVDLTGAKDPAKRQIPLIKTLVAGVNVPVQVGGGVRSEEDVAALLEAGVARVVVGSTAVKSQDMVKGWFERFGADALVLALDVRIDEQGNKQVAVSGWQENSGVSLEQLVETYLPVGLKHVLCTDISRDGTLAGSNVSLYEEVCARYPQVAFQSSGGIGDIDDVAALRGTGVRGVIVGRALLEGKFTVKEAIACWQNA
B5: hisA L46W (protein)
chain: MIIPALDLIDGTVVRLHQGDYGKQRDYGNDPLPRLQDYAAQGAEVWHLVDLTGAKDPAKRQIPLIKTLVAGVNVPVQVGGGVRSEEDVAALLEAGVARVVVGSTAVKSQDMVKGWFERFGADALVLALDVRIDEQGNKQVAVSGWQENSGVSLEQLVETYLPVGLKHVLCTDISRDGTLAGSNVSLYEEVCARYPQVAFQSSGGIGDIDDVAALRGTGVRGVIVGRALLEGKFTVKEAIACWQNA
B6: hisA L46Q (protein)
chain: MIIPALDLIDGTVVRLHQGDYGKQRDYGNDPLPRLQDYAAQGAEVQHLVDLTGAKDPAKRQIPLIKTLVAGVNVPVQVGGGVRSEEDVAALLEAGVARVVVGSTAVKSQDMVKGWFERFGADALVLALDVRIDEQGNKQVAVSGWQENSGVSLEQLVETYLPVGLKHVLCTDISRDGTLAGSNVSLYEEVCARYPQVAFQSSGGIGDIDDVAALRGTGVRGVIVGRALLEGKFTVKEAIACWQNA
B7: hisA L46P (protein)
chain: MIIPALDLIDGTVVRLHQGDYGKQRDYGNDPLPRLQDYAAQGAEVPHLVDLTGAKDPAKRQIPLIKTLVAGVNVPVQVGGGVRSEEDVAALLEAGVARVVVGSTAVKSQDMVKGWFERFGADALVLALDVRIDEQGNKQVAVSGWQENSGVSLEQLVETYLPVGLKHVLCTDISRDGTLAGSNVSLYEEVCARYPQVAFQSSGGIGDIDDVAALRGTGVRGVIVGRALLEGKFTVKEAIACWQNA
B8: hisA L48A (protein)
chain: MIIPALDLIDGTVVRLHQGDYGKQRDYGNDPLPRLQDYAAQGAEVLHAVDLTGAKDPAKRQIPLIKTLVAGVNVPVQVGGGVRSEEDVAALLEAGVARVVVGSTAVKSQDMVKGWFERFGADALVLALDVRIDEQGNKQVAVSGWQENSGVSLEQLVETYLPVGLKHVLCTDISRDGTLAGSNVSLYEEVCARYPQVAFQSSGGIGDIDDVAALRGTGVRGVIVGRALLEGKFTVKEAIACWQNA
B9: hisA L48Q (protein)
chain: MIIPALDLIDGTVVRLHQGDYGKQRDYGNDPLPRLQDYAAQGAEVLHQVDLTGAKDPAKRQIPLIKTLVAGVNVPVQVGGGVRSEEDVAALLEAGVARVVVGSTAVKSQDMVKGWFERFGADALVLALDVRIDEQGNKQVAVSGWQENSGVSLEQLVETYLPVGLKHVLCTDISRDGTLAGSNVSLYEEVCARYPQVAFQSSGGIGDIDDVAALRGTGVRGVIVGRALLEGKFTVKEAIACWQNA
B10: hisA L126A (protein)
chain: MIIPALDLIDGTVVRLHQGDYGKQRDYGNDPLPRLQDYAAQGAEVLHLVDLTGAKDPAKRQIPLIKTLVAGVNVPVQVGGGVRSEEDVAALLEAGVARVVVGSTAVKSQDMVKGWFERFGADALVAALDVRIDEQGNKQVAVSGWQENSGVSLEQLVETYLPVGLKHVLCTDISRDGTLAGSNVSLYEEVCARYPQVAFQSSGGIGDIDDVAALRGTGVRGVIVGRALLEGKFTVKEAIACWQNA
B11: hisA V224A (protein)
chain: MIIPALDLIDGTVVRLHQGDYGKQRDYGNDPLPRLQDYAAQGAEVLHLVDLTGAKDPAKRQIPLIKTLVAGVNVPVQVGGGVRSEEDVAALLEAGVARVVVGSTAVKSQDMVKGWFERFGADALVLALDVRIDEQGNKQVAVSGWQENSGVSLEQLVETYLPVGLKHVLCTDISRDGTLAGSNVSLYEEVCARYPQVAFQSSGGIGDIDDVAALRGTGVRGVIAGRALLEGKFTVKEAIACWQNA
B12: hisA I9A (protein)
chain: MIIPALDLADGTVVRLHQGDYGKQRDYGNDPLPRLQDYAAQGAEVLHLVDLTGAKDPAKRQIPLIKTLVAGVNVPVQVGGGVRSEEDVAALLEAGVARVVVGSTAVKSQDMVKGWFERFGADALVLALDVRIDEQGNKQVAVSGWQENSGVSLEQLVETYLPVGLKHVLCTDISRDGTLAGSNVSLYEEVCARYPQVAFQSSGGIGDIDDVAALRGTGVRGVIVGRALLEGKFTVKEAIACWQNA
B13: hisA I9W (protein)
chain: MIIPALDLWDGTVVRLHQGDYGKQRDYGNDPLPRLQDYAAQGAEVLHLVDLTGAKDPAKRQIPLIKTLVAGVNVPVQVGGGVRSEEDVAALLEAGVARVVVGSTAVKSQDMVKGWFERFGADALVLALDVRIDEQGNKQVAVSGWQENSGVSLEQLVETYLPVGLKHVLCTDISRDGTLAGSNVSLYEEVCARYPQVAFQSSGGIGDIDDVAALRGTGVRGVIVGRALLEGKFTVKEAIACWQNA
B14: hisA I208A (protein)
chain: MIIPALDLIDGTVVRLHQGDYGKQRDYGNDPLPRLQDYAAQGAEVLHLVDLTGAKDPAKRQIPLIKTLVAGVNVPVQVGGGVRSEEDVAALLEAGVARVVVGSTAVKSQDMVKGWFERFGADALVLALDVRIDEQGNKQVAVSGWQENSGVSLEQLVETYLPVGLKHVLCTDISRDGTLAGSNVSLYEEVCARYPQVAFQSSGGIGDADDVAALRGTGVRGVIVGRALLEGKFTVKEAIACWQNA
B15: hisA I208W (protein)
chain: MIIPALDLIDGTVVRLHQGDYGKQRDYGNDPLPRLQDYAAQGAEVLHLVDLTGAKDPAKRQIPLIKTLVAGVNVPVQVGGGVRSEEDVAALLEAGVARVVVGSTAVKSQDMVKGWFERFGADALVLALDVRIDEQGNKQVAVSGWQENSGVSLEQLVETYLPVGLKHVLCTDISRDGTLAGSNVSLYEEVCARYPQVAFQSSGGIGDWDDVAALRGTGVRGVIVGRALLEGKFTVKEAIACWQNA
B16: hisA I208Q (protein)
chain: MIIPALDLIDGTVVRLHQGDYGKQRDYGNDPLPRLQDYAAQGAEVLHLVDLTGAKDPAKRQIPLIKTLVAGVNVPVQVGGGVRSEEDVAALLEAGVARVVVGSTAVKSQDMVKGWFERFGADALVLALDVRIDEQGNKQVAVSGWQENSGVSLEQLVETYLPVGLKHVLCTDISRDGTLAGSNVSLYEEVCARYPQVAFQSSGGIGDQDDVAALRGTGVRGVIVGRALLEGKFTVKEAIACWQNA

target: Escherichia coli (laboratory strain); assay: barcode share on antibiotic plates over drug-free plates; higher = less susceptible; settings: antibiotic: carbenicillin; 2× MIC (3.1 µg/mL)
Procedure: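 A pool of E. coli strains, each edited to carry one amino-acid change in an essential protein, was grown for 48 h on minimal glucose agar with or without antibiotic; strain barcodes were sequenced; mean of two replicates.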

Row | Protein | fold change of barcode share
1 | B1 | 0.408 ± 0.067
2 | B2 | 0.735 ± 0.14
3 | B3 | 8.57 ± 4.2
4 | B4 | 0.457 ± 0.077
5 | B5 | 3.78 ± 2.3
6 | B6 | 0.898 ± 0.023
7 | B7 | 7.28 ± 2.6
8 | B8 | 0.764 ± 0.018
9 | B9 | 61.1 [active]
10 | B10 | 3.74 ± 0.64
11 | B11 | 1.09 ± 0.22
12 | B12 | 1.56 ± 0.26
13 | B13 | 0.543 ± 0.16
14 | B14 | 0.483 ± 0.12
15 | B15 | 0.486 ± 0.1
16 | B16 | 0.63 ± 0.11

same assay, conditions: antibiotic: gentamicin; 2× MIC (MIC 0.45 µg/mL)

Row | Protein | fold change of barcode share
17 | B1 | 0.0376 ± 0.0091
18 | B2 | 0.0329 ± 0.017
19 | B4 | 0.00721 ± 0.00054
20 | B5 | 0.08982 ± 6.1e-05
21 | B6 | 0.0147 ± 0.0039
22 | B8 | 0.377 ± 0.098
23 | B11 | 0.45 ± 0.62
24 | B12 | < 0.0115
25 | B13 | < 0.0091
26 | B14 | 1.74 ± 0.26
27 | B15 | 0.0279 ± 0.015
28 | B16 | 0.0103 ± 0.0057
